In paper PMC3749138:
Numbering of substitutions follows the chain as printed. No constants are given. Whether binding was seen depends on the method and setting. In cells and extracts the contact can be indirect. Some results given as binding are weak or reduced against the parent protein; the word gives no strength. Sequences can lack the tags named with a protein.

By UniProt entry, the sequences of proteins in these tests, tags left out.
UniProt P06730: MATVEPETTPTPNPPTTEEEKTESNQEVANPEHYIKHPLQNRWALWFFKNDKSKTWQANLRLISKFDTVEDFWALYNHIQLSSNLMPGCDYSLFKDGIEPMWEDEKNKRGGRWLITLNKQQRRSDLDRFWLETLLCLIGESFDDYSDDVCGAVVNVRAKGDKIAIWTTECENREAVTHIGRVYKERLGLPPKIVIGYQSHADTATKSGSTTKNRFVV
UniProt O60573: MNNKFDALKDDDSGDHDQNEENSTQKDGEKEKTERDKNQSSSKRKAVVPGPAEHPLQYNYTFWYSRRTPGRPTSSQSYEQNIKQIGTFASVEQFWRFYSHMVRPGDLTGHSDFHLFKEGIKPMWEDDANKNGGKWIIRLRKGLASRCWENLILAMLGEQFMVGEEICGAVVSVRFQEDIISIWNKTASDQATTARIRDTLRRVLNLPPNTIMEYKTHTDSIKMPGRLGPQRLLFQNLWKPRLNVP

Legend:
[1] = target: T1, GFP-4E-T Y55A VW60/61AA (human) (UniProt Q9NRA8); assay: pull-down; GFP-Trap magnetic beads with 1 mg lysate of cells transfected with GFP-4E-T, NET buffer (50 mM Tris-HCl pH 7.5, 150 mM NaCl, 1 mM EDTA, 0.5% Nonidet P-40, 0.25% gelatin), 1.25 h at 4°C; western blotting with eIF4E1, eIF4E2 and 4E-T antibodies
T1 sequence: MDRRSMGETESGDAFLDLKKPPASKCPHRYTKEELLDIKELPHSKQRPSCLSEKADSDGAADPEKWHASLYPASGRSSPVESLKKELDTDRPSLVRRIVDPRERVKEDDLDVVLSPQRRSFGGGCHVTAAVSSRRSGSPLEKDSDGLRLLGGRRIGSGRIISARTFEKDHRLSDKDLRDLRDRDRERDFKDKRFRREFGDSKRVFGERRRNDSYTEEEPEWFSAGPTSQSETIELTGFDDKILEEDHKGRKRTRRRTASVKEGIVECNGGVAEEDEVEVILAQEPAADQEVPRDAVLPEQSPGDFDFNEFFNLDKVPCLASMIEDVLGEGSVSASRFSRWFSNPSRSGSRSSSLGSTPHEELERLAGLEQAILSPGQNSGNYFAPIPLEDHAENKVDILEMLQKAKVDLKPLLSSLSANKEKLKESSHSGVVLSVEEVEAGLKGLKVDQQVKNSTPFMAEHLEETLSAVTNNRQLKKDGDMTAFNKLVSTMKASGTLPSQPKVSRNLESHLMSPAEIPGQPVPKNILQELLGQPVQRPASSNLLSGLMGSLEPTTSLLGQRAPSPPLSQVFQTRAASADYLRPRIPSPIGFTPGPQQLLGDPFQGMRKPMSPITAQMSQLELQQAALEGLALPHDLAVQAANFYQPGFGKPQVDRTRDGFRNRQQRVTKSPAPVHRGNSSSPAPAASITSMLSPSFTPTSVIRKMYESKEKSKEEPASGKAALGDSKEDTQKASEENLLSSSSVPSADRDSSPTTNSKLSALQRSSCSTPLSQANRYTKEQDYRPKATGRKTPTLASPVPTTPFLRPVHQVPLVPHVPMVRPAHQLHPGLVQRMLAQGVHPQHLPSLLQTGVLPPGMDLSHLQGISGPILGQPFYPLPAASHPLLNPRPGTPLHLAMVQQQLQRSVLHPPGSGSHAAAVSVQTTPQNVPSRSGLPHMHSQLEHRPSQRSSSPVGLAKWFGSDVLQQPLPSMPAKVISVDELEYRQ

GFP-4E-T Y55A (human) = target: T2, GFP-4E-T Y55A (human) (UniProt Q9NRA8); assay: as above
T2 sequence: T1 sequence with A60V, A61W

Substance | binding [1] | binding (GFP-4E-T Y55A (human))
eIF4E1 (endogenous) (from UniProt P06730 1-217) | no binding | binds
eIF4E2 (endogenous) (from UniProt O60573 1-245) | no binding | no binding
